PubChem BioAssay AID504845 (National Center for Advancing Translational Sciences (NCATS), 2011)
The whole screen tested about 390,000 compounds, of which about 150 (0.038%) were called active. The inconclusive results got no clear call from the source; some entries with a clear call stand among them for comparison. Calls come from the whole dose curve; as a rule, active = well fitted inhibition curve with a large enough effect; inconclusive = small, poorly fitted or top-dose-only effect; inactive = no such curve, though single readings can be large or run the other way. Potencies of inconclusive entries are doubtful fits and often do not repeat.

Target: Regulator of G-protein signaling 4 (Homo sapiens) (UniProt P49798)
Assay: Inhibitors of Regulator of G Protein Signaling (RGS) 4: qHTS; note: nearly all actives have a fitted effect of over 75% in size
Settings: Transcreener GDP fluorescence polarization, RGS4-accelerated GTP hydrolysis; series mostly up to 114 µM; activity change, negative = inhibition: at the top concentration
How it was run: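 MLSMR compounds (23 nl, pin-transferred) preincubated 10 min at room temperature with a 500nM (2x) first reagent, then RGS4 at 900nM (2x) plus Transcreener GDP mix added; fluorescence polarization (620/688 nm) read before and after 90 min at 30 °C.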
% is set by controls: 0 for no effect and ±100 for the full control effect; potency is the fitted concentration of half-maximal effect; tags give direction and shape of the fitted curve.

Chain of UniProt P49798 (P49798 whole entry, looked up): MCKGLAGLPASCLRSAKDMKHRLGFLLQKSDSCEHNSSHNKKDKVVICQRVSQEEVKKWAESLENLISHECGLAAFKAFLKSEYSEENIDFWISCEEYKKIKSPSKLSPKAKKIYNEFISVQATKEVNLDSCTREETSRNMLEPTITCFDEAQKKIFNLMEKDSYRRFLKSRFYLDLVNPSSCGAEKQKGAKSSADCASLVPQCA

Row | Compound | Potency | activity change, negative = inhibition
1 | C/C(NCCCn1ccnc1)=C(\C#N)C(N)=O | inconclusive: 89.1 µM [inhibitor, single point] | –
2 | COc1ccc(N2CC(C(=O)Nc3nnc(C4CCCCC4)s3)CC2=O)cc1 (centres undefined) | inconclusive: 50.1 µM [inhibitor, partial curve, poor fit] | –
3 | Cc1ccc(NN2C(=O)C=C(c3ccc(Cl)cc3)C2=O)cc1 | inconclusive: 35.5 µM [inhibitor, partial curve, poor fit] | –
4 | N#CC1=C(S)N(c2ccccc2)C(c2ccc(-c3cccc(Cl)c3)o2)NC1=O (centres undefined) | inconclusive: 20 µM [inhibitor, full curve, poor fit] | –
5 | Cc1nc2ccccc2c2oc(C(=O)Nc3ccc(C(C)C)cc3)cc12 | – | inactive: 22.2%
6 | COC(=O)c1ccc(OC(=O)c2cccs2)cc1 | inconclusive: 89.1 µM [inhibitor, partial curve, poor fit] | –
7 | COc1ccc(-c2nnc3sc(C(C)N4C(=O)c5ccccc5C4=O)nn23)cc1 (centres undefined) | inconclusive: 50.1 µM [inhibitor, partial curve, poor fit] | –
8 | CCCCC(=O)NC(=S)Nc1c(C)cc(Br)cc1C | inconclusive: 50.1 µM [inhibitor, partial curve, poor fit] | –
9 | CCOc1ccc2c(ccc(/C=C/c3cc(C)c4cccnc4c3O)[n+]2C)c1 | inconclusive: 89.1 µM [inhibitor, partial curve, poor fit] | –
10 | CCC(=O)N1CCCc2cc(S(=O)(=O)N3CCC(C(=O)NC4CCC(C)CC4)CC3)ccc21 (centres undefined) | – | inactive: -17.7%
11 | Cc1ccnc(Sc2ccc([N+](=O)[O-])cc2[N+](=O)[O-])n1 | – | inactive: 3.02%
12 | Nn1c(Cc2ccc(Br)cc2)n[nH]c1=S | inconclusive: 100 µM [inhibitor, partial curve, poor fit] | –
13 | COc1ccc(CC2(C)OC(c3ccc(C)c([N+](=O)[O-])c3)=NN2C(C)=O)cc1 (centres undefined) | inconclusive: 100 µM [inhibitor, partial curve, poor fit] | –
14 | COCc1c(C(=O)N2CCN(Cc3c(F)cccc3Cl)CC2)oc2ccccc12 | – | inactive: 3.99%
15 | O=S(=O)(c1ccccc1)n1nc(-c2ccco2)nc1NCc1ccccc1 | – | inactive: -6.95%
16 | CC(O)CN=c1cc(-c2ccccc2)oc2ccc(Cl)cc12 (centres undefined) | – | inactive: -9.01%
17 | CCOc1c(CNCCCSc2nc(C)cc(C)n2)cccc1OC | – | inactive: -8.92%
18 | CCN=C1SC(CC(=O)NCC)C(=O)N1CC (centres undefined) | inconclusive: 89.1 µM [inhibitor, single point] | –
19 | CCN(CC)c1ccc(NC(=O)COC(=O)COc2ccccc2[N+](=O)[O-])cc1 | inconclusive: 79.4 µM [inhibitor, partial curve, poor fit] | –
